Among the data in patent EP4563146A1 (IRBM S.P.A., priority 2023, dated 2025) are IC50 values, retold here.

The target of the first assay is ZIKV NS2B-G4SG4-NS3 serine protease (Zika virus, UniProt A0A024B7W1, R1467A/R1531G). Put plainly: ZIKV protease inhibition assay. It is filed as biochemical.
Conditions: not given
Regarding `CN(C)[C@H]1CC[C@H]([n+]2cc([N-]C(=O)Nc3cc(NC(=O)Cc4ccccc4)cc(C(F)(F)F)c3)on2)CC1` [Example 96, (3-((1R,4R)-4-(dimethylamino)cyclohexyl)-1,2,3-oxadiazol-3-ium-5-yl)((3-(2-phenylacetamido)-5-(trifluoromethyl)phenyl)-carbamoyl)amide], the IC50 is < 100 nM.

As for `COC(=O)[C@H]1CC[C@H]([n+]2cc([N-]C(=O)Nc3cc(NC(=O)Cc4ccccc4C)cc(C(F)(F)F)c3)on2)CC1` [Example 227, (3-((1R,4R)-4-(Methoxycarbonyl)cyclohexyl)-1,2,3-oxadiazol-3-ium-5-yl)((3-(2-(o-tolyl)-acetamido)-5-(trifluoromethyl)phenyl)carbamoyl) amide], the IC50 was in the range of 100 to 1000 nM.

The compound `Cc1ccccc1CC(=O)Nc1cc(NC(=O)[N-]c2c[n+]([C@H]3CC[C@H](N(C)C)CC3)no2)cc(C(F)(F)F)c1` [Example 257, (3-((1R,4R)-4-(Dimethylamino)cyclohexyl)-1,2,3-oxadiazol-3-ium-5-yl)((3-(2-(o-tolyl)-acetamido)-5-(trifluoromethyl)phenyl)-carbamoyl)amide] registered an IC50 of 100 to 1000 nM.

Regarding `CN(C)C[C@H]1CC[C@H]([n+]2cc([N-]C(=O)Nc3cc(N(C)C(=O)Cc4ccccc4)cc(C(F)(F)F)c3)on2)CC1` [Example 172, (3-((1R,4R)-4-((Dimethylamino)methyl)-cyclohexyl)-1,2,3-oxadiazol-3-ium-5-yl)((3-(N-methyl-2-phenylacetamido)-5-(trifluoromethyl)-phenyl)carbamoyl)amide], the IC50 was in the range of 1000 to 20000 nM.

`Cc1ccccc1CC(=O)Nc1cc(NC(=O)[N-]c2c[n+]([C@H]3CC[C@H](CO)CC3)no2)cc(C(F)(F)F)c1` [Example 228, (3-((1R,4R)-4-(Hydroxymethyl)cyclohexyl)-1,2,3-oxadiazol-3-ium-5-yl)((3-(2-(o-tolyl)acetamido)-5-(trifluoromethyl)phenyl)carbamoyl)amide] came in with an IC50 of 100 to 1000 nM.

Turning to `C[C@H](C(=O)Nc1cc(NC(=O)[N-]c2c[n+]([C@H]3CC[C@H](CN(C)C)CC3)no2)cc(C(F)(F)F)c1)c1ccccc1` [Example 170, (3-((1R,4S)-4-((Dimethylamino)methyl)-cyclohexyl)-1,2,3-oxadiazol-3-ium-5-yl)((3-((S)-2-phenylpropanamido)-5-(trifluoromethyl)-phenyl)carbamoyl)amide], the IC50 was < 100 nM.

`CC(C(=O)N(C)c1cc(NC(=O)[N-]c2c[n+]([C@H]3CC[C@H](CN(C)C)CC3)no2)cc(C(F)(F)F)c1)c1ccccc1` (stereo partly drawn) [Example 167, (3-((1R,4R)-4-((Dimethylamino)methyl)-cyclohexyl)-1,2,3-oxadiazol-3-ium-5-yl)((3-(N-methyl-2-phenylpropanamido)-5-(trifluoromethyl)phenyl)carbamoyl)amide] displayed an IC50 of 1000 to 20000 nM.

For the compound `Cc1cccc(CC(=O)Nc2cc(NC(=O)[N-]c3c[n+]([C@H]4CC[C@H](CN(C)C)CC4)no3)cc(C(F)(F)F)c2)c1C` [Example 212, (3-((1R,4R)-4-((Dimethylamino)methyl)-cyclohexyl)-1,2,3-oxadiazol-3-ium-5-yl)((3-(2-(2,3-dimethylphenyl)acetamido)-5-(trifluoromethyl)phenyl)carbamoyl)amide], the IC50 is 100 to 1000 nM.

`C[C@@H](C(=O)Nc1cc(NC(=O)[N-]c2c[n+]([C@H]3CC[C@H](CN(C)C)CC3)no2)cc(C(F)(F)F)c1)c1ccccc1` [Example 175, (3-((1R,4R)-4-((Dimethylamino)methyl)-cyclohexyl)-1,2,3-oxadiazol-3-ium-5-yl)((3-((R)-2-phenylpropanamido)-5-(trifluoromethyl)-phenyl)carbamoyl)amide] gave an IC50 of 100 to 1000 nM.

Regarding `NC[C@H]1CC[C@@H]([n+]2cc([N-]C(=O)Nc3cc(N4CCC(c5ccccc5)C4=O)cc(C(F)(F)F)c3)on2)CC1` (stereo partly drawn) [Example 119, (3-((1S,4S)-4-(Aminomethyl)cyclohexyl)-1,2,3-oxadiazol-3-ium-5-yl)((3-(2-oxo-3-phenylpyrrolidin-1-yl)-5-(trifluoromethyl)phenyl)-carbamoyl)amide], the IC50 is < 100 nM.

As to `N[C@H]1CC[C@@H]([n+]2cc([N-]C(=O)Nc3cc(NC(=O)Cc4ccccc4)cc(C(F)(F)F)c3)on2)CC1` [Example 91, (3-((1S,4S)-4-Aminocyclohexyl)-1,2,3-oxadiazol-3-ium-5-yl)((3-(2-phenylacetamido)-5-(trifluoromethyl)phenyl)carbamoyl)amide], the IC50 was in the range of 100 to 1000 nM.

As for `CN(C)[C@H]1C[C@H]([n+]2cc([N-]C(=O)Nc3cc(NC(=O)Cc4ccccc4)cc(C(F)(F)F)c3)on2)C1` [Example 55, (3-((1R3R)-3-(Dimethylamino)cyclobutyl)-1,2,3-oxadiazol-3-ium-5-yl)((3-(2-phenyl-acetamido)-5-(trifluoromethyl)phenyl)-carbamoyl)amide], the IC50 is 100 to 1000 nM.

Compound `O=C([N-]c1c[n+](C[C@H]2CC[C@H](NCC(F)(F)F)CC2)no1)Nc1cc(N2CC[C@H](c3ccccc3)C2=O)cc(C(F)(F)F)c1` [Example 144, ((3-((R)-2-Oxo-3-phenylpyrrolidin-1-yl)-5-(trifluoromethyl)phenyl)carbamoyl)(3-(((1r,4r)-4-((2,2,2-trifluoroethyl)amino)cyclohexyl)-methyl)-1,2,3-oxadiazol-3-ium-5-yl)amide] registered an IC50 of 100 to 1000 nM.

Consider `CN(C)C[C@H]1CC[C@H]([n+]2cc([N-]C(=O)Nc3cc(NC(=O)[C@H](F)c4ccccc4F)cc(C(F)(F)F)c3)on2)CC1` (single isomer, unassigned) [Example 271], for which the IC50 was < 100 nM.

With `N[C@H]1CC[C@H]([n+]2cc([N-]C(=O)Nc3cc(NC(=O)Cc4ccccc4)cc(C(F)(F)F)c3)on2)CC1` [Example 92, (3-((1R,4R)-4-Aminocyclohexyl)-1,2,3-oxadiazol-3-ium-5-yl)((3-(2-phenylacetamido)-5-(trifluoromethyl)phenyl)carbamoyl)amide], the IC50 was < 100 nM.

Staying with this assay, now noted: 1.25 nM enzyme, 10 µM Bz-Nle-KRR-AMC substrate, 25 °C; read-out: Zika - NS3 protease.
As to `CCC(C(=O)Nc1cc(NC(=O)[N-]c2c[n+]([C@H]3CC[C@H](CN(C)C)CC3)no2)cc(C(F)(F)F)c1)c1ccccc1` (stereo partly drawn) [Example 165, (3-((1R,4R)-4-((Dimethylamino)methyl)-cyclohexyl)-1,2,3-oxadiazol-3-ium-5-yl)((3-(2-phenylbutanamido)-5-(trifluoromethyl)phenyl)-carbamoyl)amide], the IC50 was < 100 nM.

The same assay, now with this note: read-out: Zika - NS3 protease; 1.25 nM enzyme, 10 µM Bz-Nle-KRR-AMC substrate, 25 °C.
For the compound `CN1Cc2cc(C(=O)Nc3cc(NC(=O)[N-]c4c[n+](Cc5ccccn5)no4)cc(C(F)(F)F)c3)sc2C1` [Example 39], the IC50 is 100 to 1000 nM.

On to `COc1ncc(-c2ccc(C[n+]3cc([N-]C(=O)Nc4cc(NC(=O)C5CCCC5)cc(C(F)(F)F)c4)on3)cc2)c(C)n1` [Example 18], for which the IC50 was < 100 nM.

Take `O=C(Cc1c[nH]c2cccnc12)Nc1cc(NC(=O)[N-]c2c[n+](Cc3ccccn3)no2)cc(C(F)(F)F)c1` [Example 36]: the IC50 was < 100 nM.

`O=C(CCOC1CCCC1)Nc1cc(NC(=O)[N-]c2c[n+](Cc3ccccn3)no2)cc(C(F)(F)F)c1` [Example 73]: the IC50 was in the range of 100 to 1000 nM.

Turning to `O=C([N-]c1c[n+](Cc2ccccn2)no1)Nc1cc(NC(=O)c2ccc3c(n2)CCO3)cc(C(F)(F)F)c1` [Example 79], the IC50 was 100 to 1000 nM.
